# Measured values reported in the supplement of paper PMC8728848.
# Some of the results follow.
# Assays:
# Assay in all cases: glycan array binding signal (z-score within array); higher = stronger binding
# Conditions in all cases: glycan notation: IUPAC condensed, linker removed
# [1] = molecular target: Gal3S(b1-3)[Fuc(a1-4)]GlcNAc
# Method in brief: (§1)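 The binding signal is a Z-score computed within each array and averaged over linkers. Arrays of the same protein sequence at different concentrations or buffers were also averaged together. Data originate from 3228 arrays in the Consortium for Functional Glycomics database, kept only where the protein sequence was available.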
# [2] = molecular target: Gal3S(b1-4)Glc
# Method in brief: as §1
# [3] = molecular target: Gal3S(b1-4)Glc6S
# Method in brief: as §1
# [4] = molecular target: Gal3S(b1-4)GlcNAc
# Method in brief: as §1
# [5] = molecular target: Gal3S(b1-4)[Fuc(a1-3)]Glc6S
# Method in brief: as §1
# [6] = molecular target: Gal3S(b1-4)[Fuc(a1-3)]GlcNAc
# Method in brief: as §1
# [7] = molecular target: Gal3S(b1-4)[Fuc(a1-3)]GlcNAc6S
# Method in brief: as §1
# [8] = molecular target: Gal3S4S(b1-4)GlcNAc
# Method in brief: as §1
# [9] = molecular target: Gal3S6S(b1-4)GlcNAc
# Method in brief: as §1
# [10] = molecular target: Gal3S6S(b1-4)GlcNAc6S
# Method in brief: as §1
# [11] = molecular target: Gal4S(b1-4)GlcNAc
# Method in brief: as §1
# [12] = molecular target: Gal4S6S(b1-4)GlcNAc
# Method in brief: as §1
# [13] = molecular target: Gal6P(b1-4)GlcNAc
# Method in brief: as §1
# [14] = molecular target: Gal6S(b1-3)GlcNAc
# Method in brief: as §1
# [15] = molecular target: Gal6S(b1-3)GlcNAc6S
# Method in brief: as §1
# [16] = molecular target: Gal6S(b1-4)Glc
# Method in brief: as §1
# [17] = molecular target: Gal6S(b1-4)Glc6S
# Method in brief: as §1
# [18] = molecular target: Gal6S(b1-4)GlcNAc
# Method in brief: as §1
# [19] = molecular target: Gal6S(b1-4)GlcNAc6S
# Method in brief: as §1
# [20] = molecular target: GalNAc(a1-3)Gal
# Method in brief: as §1
# [21] = molecular target: GalNAc(a1-3)GalNAc
# Method in brief: as §1
# [22] = molecular target: GalNAc(a1-3)GalNAc(b1-3)Gal(a1-4)Gal(b1-4)Glc
# Method in brief: as §1
# [23] = molecular target: GalNAc(a1-3)GalNAc(b1-3)Gal(a1-4)Gal(b1-4)GlcNAc
# Method in brief: as §1
# [24] = molecular target: GalNAc(b1-3)Gal
# Method in brief: as §1
# [25] = molecular target: GalNAc(b1-3)Gal(a1-4)Gal(b1-4)GlcNAc
# Method in brief: as §1
# [26] = molecular target: GalNAc(b1-3)Gal(a1-4)Gal(b1-4)GlcNAc(b1-3)Gal(b1-4)Glc
# Method in brief: as §1
# [27] = molecular target: GalNAc(b1-3)Gal(a1-6)Gal(b1-4)Glc
# Method in brief: as §1
# [28] = molecular target: GalNAc(b1-3)GalNAc
# Method in brief: as §1
# [29] = molecular target: GalNAc(b1-3)GlcNAc
# Method in brief: as §1
# [30] = molecular target: GalNAc(b1-4)Gal(b1-4)Glc
# Method in brief: as §1
binder,measurement,setting,value
"InvD YPIII (Yersinia pseudotuberculosis), B1JSC0 (protein) MIKYFSFFKKPEPIVGILPNRQSHHILPTHIRRVAWGTLLLQLFIPLSVSFSPAIAAMKASKADTMVSYSSTEPYVLGSGETVAMVAKKYGITVDELKKINIYRTFSRPFTALTTGDEIDIPRKASPFSVDNNKDNRLSVENTLAGHAVAGATALSNGDVAKSGERMVRSAASNEFNNSAQQWLSQFGTARVQLNINDDFHLDGSAADVLIPLYDNEKSILFTQLGARNKDSRNTVNMGAGVRTFQGNWMYGANTFFDNDLTGKNRRIGVGAEAWTDYLKLSANNYFGITDWHQSRDFIDYNERPANGYDLRAEAYLPSYPQLGGKAMYEKYRGDDVALFGKDNRQKNPHAITAGVNYTPIPLVTIGAEHRAGKGGQNDSNINFQLNYRLGETWQSHIDPSAVAASRTLAGSRYDLVERNNHIVLDYQKQNLVRLSLPDSLAGDPFSQLSVTAQVTATHGLERIDWQSAELMAAGGVLKQTSKNGLEITLPEYQMNRTGGNSYILNAIAYDTQGNASSQASMLITVNAQKINIANSTLVAVPINIEANNSDTSVVTLTLKDDNNIPVTGQDVTFLSPLGTLSAMTDSGNGVYTATLTAGTVSGTTAVSSNINGSALDMTPATVTLNGNSGELSITHSMLVAAPVNIEANGSDTSVVTLTLRDSNNNPVTGQTVTFAGTLGTLGAVTEGSSGVYTATLTAGIMVGTSSITASVNSTALGVTPATVTLNGDSGNLSTTNSTLVAAPVNIEANSSDTSVVTLTLRDNNNNPVTGQTVVFTSTLGTLGNVTEQASGVYTATLTAGTVSGVASLSVSVGGNALGVTPATVTLNGDSGNLSTTNSTLVAAPVNIEANSSDTSVVTLTLRDNNNNPVTGQTVNFAGTLGTLGTVSEGSSGVYTTTLTAGTVAGVASLSVNVGGNALGVTPATVTLNGNSGNLSATNSTLVAAPVNIEANSSDTSVVTLTLRDNNNNPVTGQTVAFTSTLGTLGNVTEQASGVYTATLTAGTVSGVASLSVSVNSNALGVTPATVTLNGDSGNLSTTNSTLVAAPVNIEANSSDTSVVTLTLRDNNNNPVTGQTVAFTSTLGTLGNVTEQASGLYTATLTAGTVSGVASLSVNVGGNALGVTPATVTLNGDSGNLSATNSTLVAAPVNIEANSSDTSVVTLTLRDNNNNPVTGQTVAFTSTLGTLGNVTEQASGLYTATLTAGTVSGVASLSVNVGGTALGVTPATVTLNGDSGNLSTTNSTLVAAPVNIEANSSDTSVVTLTLRDNNNNPVTGQTVAFTSTLGTLGNVTEQASGLYTATLTAGTVSGVASLSVSVNSTALGVTPATVTLNGDSGNLSTTNSTLVAAPVNIEANSSDTSVVTLTLRDNNNNPVTGQTVAFTSTLGTLGNVTEQASGVYTATLTAGTVAGVASLSVNVGGNALGVTPATVTLNGDSGNLSTTNSTLVAAPVNIEANSSDTSVVTLTLRDNNNNPVTGQTVAFTSTLGTLGNVTEQASGVYTATLTAGTVSGVASLSVSVGSSALGVTPATVTLNGDSGNLSTTNSTLVAAPVNIEANNSDTSVVTLTLRDNNNNPVTGQTVAFTSTLGTLGNVTEQASGVYTATLTAGTVSGVASLSVSVNSNALGVTPATVTLNGDSGNLSTTNSTLVAAPVNIEANSSDTSVVTLTLRDNNNNPVTGQTVVFTSTLGTLGNVTEQASGLYTATLTAGTVSGVASLSVSVGGNALGVTGNITLAPGALDAARSILAVNKPSINADDRIGSTITFTAQDAQGNAITGLDIAFMTDLENSQIMTLVDHNDGTYTANINGTQTGIANIAVQSSGATIAGLAATMVTITPGAWNTTQATPVMTVALPITTCQSSSGVYKRYYIGIVTHELYDNYGNEISGILTYNLGAGRYTTVTSQNSSVSGSNGLTRRSNSPVSHFILTSDAYTSQAACYAERIANVNVTITVTAITDDFKTSAVNKVFILGTGSN",glycan array binding signal (z-score),[1],-0.381
same,glycan array binding signal (z-score),[2],-0.329
same,glycan array binding signal (z-score),[3],-0.169
same,glycan array binding signal (z-score),[4],-0.195
same,glycan array binding signal (z-score),[5],-0.047
same,glycan array binding signal (z-score),[6],-0.412
same,glycan array binding signal (z-score),[7],0.06
same,glycan array binding signal (z-score),[8],-0.009
same,glycan array binding signal (z-score),[9],0.187
same,glycan array binding signal (z-score),[10],-0.084
same,glycan array binding signal (z-score),[11],0.329
same,glycan array binding signal (z-score),[12],-0.133
same,glycan array binding signal (z-score),[13],-0.37
same,glycan array binding signal (z-score),[14],-0.189
same,glycan array binding signal (z-score),[15],-0.046
same,glycan array binding signal (z-score),[16],-0.243
same,glycan array binding signal (z-score),[17],0.543
same,glycan array binding signal (z-score),[18],-0.467
same,glycan array binding signal (z-score),[19],-0.131
same,glycan array binding signal (z-score),[20],-0.135
same,glycan array binding signal (z-score),[21],-0.275
same,glycan array binding signal (z-score),[22],-0.352
same,glycan array binding signal (z-score),[23],-0.134
same,glycan array binding signal (z-score),[24],0.098
same,glycan array binding signal (z-score),[25],-0.259
same,glycan array binding signal (z-score),[26],-0.125
same,glycan array binding signal (z-score),[27],-0.316
same,glycan array binding signal (z-score),[28],-0.226
same,glycan array binding signal (z-score),[29],-0.286
same,glycan array binding signal (z-score),[30],0.025
